{
  "source": "the BET-seq Pho4 binding data (Le et al. 2018)",
  "note": "Some of the results follow. Values were computed here from the reads of four pooled replicates and scatter widely.",
  "data": [
    {"molecular_target": "T1, Pho4 (S. cerevisiae) (UniProt P07270)", "T1 sequence": "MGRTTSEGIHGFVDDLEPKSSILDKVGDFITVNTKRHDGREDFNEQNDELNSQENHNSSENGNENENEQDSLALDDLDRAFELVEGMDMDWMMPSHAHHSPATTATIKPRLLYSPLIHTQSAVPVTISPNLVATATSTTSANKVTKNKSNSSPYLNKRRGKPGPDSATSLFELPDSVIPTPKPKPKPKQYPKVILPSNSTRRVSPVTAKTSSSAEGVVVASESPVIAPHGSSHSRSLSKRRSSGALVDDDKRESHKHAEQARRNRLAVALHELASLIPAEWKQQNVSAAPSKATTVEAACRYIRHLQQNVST", "assay": "relative binding free energy (BET-seq); higher = weaker binding", "conditions": "reference: library average", "units": {"relative binding free energy": "kcal/mol"}, "values": [
      {"sequence": "TGAGACACGTGCGTTA", "relative binding free energy": 0.07},
      {"sequence": "GGACTCACGTGTTTTG", "relative binding free energy": 0.2},
      {"sequence": "AGGTTCACGTGTGCAA", "relative binding free energy": 0.32},
      {"sequence": "GGGACCACGTGATTGT", "relative binding free energy": 0.16},
      {"sequence": "TGCAACACGTGGTTGG", "relative binding free energy": -0.16},
      {"sequence": "AGTTACACGTGAGTTT", "relative binding free energy": 0.31},
      {"sequence": "TTTGACACGTGTCGTG", "relative binding free energy": 0.06},
      {"sequence": "TTTGACACGTGATAGT", "relative binding free energy": -0.02},
      {"sequence": "ATATTCACGTGAGCGG", "relative binding free energy": 0.31},
      {"sequence": "CTTAGCACGTGGCGGT", "relative binding free energy": -0.14},
      {"sequence": "TGAGACACGTGGCGTA", "relative binding free energy": -0.12},
      {"sequence": "CGAGGCACGTGTGGGT", "relative binding free energy": -0.08},
      {"sequence": "CGAGTCACGTGGTGGC", "relative binding free energy": -0.03},
      {"sequence": "GCGGGCACGTGTAAAG", "relative binding free energy": 0.16},
      {"sequence": "GGGGTCACGTGTAGAC", "relative binding free energy": 0.17},
      {"sequence": "GGACGCACGTGGGTGG", "relative binding free energy": -0.22},
      {"sequence": "TTCTGCACGTGAATGT", "relative binding free energy": 0.31},
      {"sequence": "CGTTGCACGTGGGAGT", "relative binding free energy": 0},
      {"sequence": "TGTTACACGTGCAGTA", "relative binding free energy": 0.06},
      {"sequence": "GATAGCACGTGCGAGG", "relative binding free energy": 0.01},
      {"sequence": "AGGGTCACGTGTAGAG", "relative binding free energy": 0.07},
      {"sequence": "GTTAGCACGTGAGTTA", "relative binding free energy": 0.22},
      {"sequence": "GAGTGCACGTGTGTGC", "relative binding free energy": 0.01},
      {"sequence": "GCGGACACGTGGGTAT", "relative binding free energy": 0.08},
      {"sequence": "TAATGCACGTGGGAGG", "relative binding free energy": -0.06},
      {"sequence": "TGATACACGTGGGGTG", "relative binding free energy": -0.11},
      {"sequence": "AAGTTCACGTGGTATA", "relative binding free energy": 0.39},
      {"sequence": "AGGCTCACGTGGTTAT", "relative binding free energy": 0.13},
      {"sequence": "GCGGTCACGTGGGATG", "relative binding free energy": 0.14},
      {"sequence": "TATTTCACGTGCGTCA", "relative binding free energy": 0.32},
      {"sequence": "GGGAGCACGTGACGTG", "relative binding free energy": 0.21},
      {"sequence": "ATTGTCACGTGCGGAT", "relative binding free energy": 0.16},
      {"sequence": "TGTAGCACGTGGTTTG", "relative binding free energy": -0.09},
      {"sequence": "TGAGGCACGTGCTATG", "relative binding free energy": -0.24},
      {"sequence": "AAATACACGTGTGTGT", "relative binding free energy": 0.11},
      {"sequence": "TCGTGCACGTGTTCGT", "relative binding free energy": -0.09},
      {"sequence": "AATTACACGTGTAGAG", "relative binding free energy": 0.14},
      {"sequence": "TTTAACACGTGGTAGA", "relative binding free energy": -0.11},
      {"sequence": "TGGGCCACGTGCGTTA", "relative binding free energy": -0.1},
      {"sequence": "AAAATCACGTGTTGAG", "relative binding free energy": 0.23},
      {"sequence": "GCGTTCACGTGATTGT", "relative binding free energy": 0.41},
      {"sequence": "GCGTTCACGTGTGAGG", "relative binding free energy": 0.29},
      {"sequence": "TAACTCACGTGGGGGA", "relative binding free energy": 0.06},
      {"sequence": "AGAGGCACGTGAGGGT", "relative binding free energy": 0.12},
      {"sequence": "TTGGTCACGTGTGTCG", "relative binding free energy": 0.16},
      {"sequence": "GATTGCACGTGGATAT", "relative binding free energy": 0.08},
      {"sequence": "GCGAACACGTGTTGGG", "relative binding free energy": 0.12},
      {"sequence": "TAGAGCACGTGTTATA", "relative binding free energy": -0.1},
      {"sequence": "ATAATCACGTGTTGGC", "relative binding free energy": 0.15},
      {"sequence": "GCGGACACGTGTTAGG", "relative binding free energy": 0.14},
      {"sequence": "AGGGTCACGTGCGTCA", "relative binding free energy": 0.09},
      {"sequence": "TGCTTCACGTGTTGCT", "relative binding free energy": 0.04},
      {"sequence": "TTGAGCACGTGGCCGG", "relative binding free energy": -0.19},
      {"sequence": "TCGTTCACGTGTTCTT", "relative binding free energy": 0.28},
      {"sequence": "TACGTCACGTGGGTGG", "relative binding free energy": -0.17},
      {"sequence": "GGTATCACGTGGTGGT", "relative binding free energy": 0.12},
      {"sequence": "TAGGTCACGTGGCAAT", "relative binding free energy": 0.11},
      {"sequence": "GAGTGCACGTGCGGGA", "relative binding free energy": 0.02},
      {"sequence": "TTTTCCACGTGTTTTG", "relative binding free energy": 0.18},
      {"sequence": "GAGGGCACGTGACAGG", "relative binding free energy": -0.01},
      {"sequence": "CAGGGCACGTGAGGTG", "relative binding free energy": 0.13},
      {"sequence": "TGAGTCACGTGGTACG", "relative binding free energy": 0.04},
      {"sequence": "CGGGTCACGTGCATGG", "relative binding free energy": -0.01},
      {"sequence": "GGGGCCACGTGATGGC", "relative binding free energy": 0.1},
      {"sequence": "TTTCTCACGTGTGGTA", "relative binding free energy": 0.24},
      {"sequence": "GACGGCACGTGAGTTT", "relative binding free energy": 0.38},
      {"sequence": "GTATACACGTGGAGGG", "relative binding free energy": 0.1},
      {"sequence": "TAAGTCACGTGTGGTA", "relative binding free energy": 0.15},
      {"sequence": "CTGTTCACGTGCGTTT", "relative binding free energy": 0.1},
      {"sequence": "GTCTGCACGTGGTCGG", "relative binding free energy": 0},
      {"sequence": "TGTCTCACGTGAGTGG", "relative binding free energy": 0.37},
      {"sequence": "ACTATCACGTGGGGAT", "relative binding free energy": 0},
      {"sequence": "ACTGGCACGTGGAGGG", "relative binding free energy": -0.25}
    ]}
  ]
}
